Among all 48,000 compounds or so, about 550 (1.1%) were called active. Roughly 4% stayed inconclusive and do not appear here. Rule as the data show it: active = potency below about 15 µM; inconclusive = mostly about 16 µM to 33 µM; inactive = weaker than that. The list shows a part of the results.
target: Lysosomal acid glucosylceramidase (Homo sapiens) (UniProt P04062); test: Glucocerebrosidase; conditions: purified enzyme, resorufin glucoside fluorescence (screen aimed at inhibitors), 20 min;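 also: the screen sought inhibitors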
Summary of the method: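 Compounds titrated against 0.2 nM normal enzyme, 30 uM resorufin beta-D-glucopyranoside substrate, citrate/phosphate buffer with taurocholate and tween-20, pH 5.9. Reaction ran 20 min at room temperature; fluorescence (Ex 548/Em 600) gave AC50.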
Potency is read from the fitted curve at half-maximal effect.

UniProt P04062, sequence (P04062 whole entry, looked up): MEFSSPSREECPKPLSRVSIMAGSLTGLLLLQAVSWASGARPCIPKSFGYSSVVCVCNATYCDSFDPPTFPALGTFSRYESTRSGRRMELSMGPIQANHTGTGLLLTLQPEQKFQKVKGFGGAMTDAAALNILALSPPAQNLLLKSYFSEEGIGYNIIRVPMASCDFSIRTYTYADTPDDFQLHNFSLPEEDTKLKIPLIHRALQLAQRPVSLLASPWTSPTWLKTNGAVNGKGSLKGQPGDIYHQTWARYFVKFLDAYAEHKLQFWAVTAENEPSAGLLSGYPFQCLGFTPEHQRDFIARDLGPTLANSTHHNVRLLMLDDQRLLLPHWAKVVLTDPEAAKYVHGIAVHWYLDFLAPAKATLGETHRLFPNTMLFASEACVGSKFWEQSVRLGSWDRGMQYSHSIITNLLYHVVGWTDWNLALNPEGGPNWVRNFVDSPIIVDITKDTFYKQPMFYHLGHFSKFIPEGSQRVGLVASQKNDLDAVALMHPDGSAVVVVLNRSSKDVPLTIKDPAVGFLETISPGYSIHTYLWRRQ

Potency, inactive:
c1ccc(CSc2nnc(Cc3ccccn3)o2)cc1 > 76.9 µM
CC(=O)N1CCCc2cc(S(=O)(=O)N(C)Cc3ccccc3)ccc21 > 76.9 µM
Cc1ccc2c(CC(=O)Nc3sccc3C(N)=O)coc2c1 > 76.9 µM
COC(=O)c1[nH]c2ccc(C)cc2c1NS(=O)(=O)c1ccc(F)cc1 > 76.9 µM
CC(=O)N1c2c(cc(Br)cc2S(=O)(=O)N2CCOCC2)CC1C (centres undefined) > 76.9 µM
O=C1CC(N2CCC(c3nc4ccccc4[nH]3)CC2)C(=O)N1Cc1ccccc1 (centres undefined) > 76.9 µM
Cc1cccc(-n2c(N)cc(=O)nc2SCC(=O)NC2CCCCC2)c1 > 76.9 µM
O=C(O)C1C2C=CC(O2)C1C(=O)Nc1ccc(S(=O)(=O)Nc2ccccc2)cc1 (centres undefined) > 76.9 µM
Cc1cccc(Cn2c(=O)c3c(nc4n3CCCN4Cc3ccccc3)n(C)c2=O)c1 > 76.9 µM
COCCNC(=O)C1CC(c2cccc(OC)c2)=NO1 (centres undefined) > 76.9 µM
O=C(CC(c1ccc(F)cc1)c1ccco1)N1CCOCC1 (centres undefined) > 76.9 µM
O=P(COCCO)(c1ccccc1)c1ccccc1 > 76.9 µM
Cc1nnc(SCc2cnc(-c3ccc(C(C)C)cc3)s2)n1C > 76.9 µM
O=C(NCc1ccccc1)c1cc(-c2cccs2)on1 > 76.9 µM
CC1CCC(NC(=O)Cn2c(=O)[nH]c3ccsc3c2=O)CC1 (centres undefined) > 76.9 µM
Cc1c(C(=O)OCCN2CCCCC2)oc2ccccc12 > 76.9 µM
COc1ccc(OCc2ccc(-c3nc4ccccc4c(=O)n3N)o2)cc1 > 76.9 µM
Cc1cc(C(=O)N2CCN(c3ncccn3)CC2)c(C)o1 > 76.9 µM
Cc1ccc(S(=O)(=O)C(C#N)c2nc3ccccc3nc2N2CCC(C)CC2)cc1 (centres undefined) > 76.9 µM
O=S(=O)(c1ccc(Br)s1)N1CCCCC1 > 76.9 µM
O=C(O)c1cc(-c2ccccn2)n[nH]1 > 76.9 µM
O=C1CC(C(=O)Nc2ccc(O)c(C(=O)O)c2)C(c2ccccc2)O1 (centres undefined) > 76.9 µM
Cc1cc(C)n(-c2ccc(C(=O)OCC(=O)NCc3ccco3)cc2)n1 > 76.9 µM
C=CCn1c(SCc2cc(=O)n3ccsc3n2)nc2sc(C)c(C)c2c1=O > 76.9 µM
Cc1ccc2nsnc2c1S(=O)(=O)NCc1ccncc1 > 76.9 µM
COc1ccc(-c2ccc(Nc3ccc(S(=O)(=O)N4CCCC4)cc3)nn2)cc1OC > 76.9 µM
CC(=O)OC1CC2(C)C(=O)CCC2C2CCc3cc(O)ccc3C12 (centres undefined) > 76.9 µM
COc1cc(C(=O)NCCC(=O)NCc2ccc3c(c2)OCO3)cc(OC)c1OC > 76.9 µM
Cc1cccc(C(=O)OCc2cc3ccccc3[nH]c2=O)c1 > 76.9 µM
Cc1nnc(SCCn2c(N3CCCCC3)nc3c2c(=O)n(C)c(=O)n3C)s1 > 76.9 µM
COc1ccc2[nH]c(C(=O)O)c(NS(=O)(=O)c3ccc(Cl)s3)c2c1 > 76.9 µM
Cc1cccc(OCc2nnc3n2CCCCC3)c1 > 76.9 µM
O=c1c2c3c(sc2n2cnnc2n1-c1ccccc1)N(Cc1ccccc1)CCC3 > 76.9 µM
O=C(O)c1ccc(NS(=O)(=O)c2cc(Cl)ccc2Cl)cc1O > 76.9 µM
CCOC(=O)c1ccc(NS(=O)(=O)c2cnc[nH]2)cc1 > 76.9 µM
CCCc1cc(C(N)=O)c(NC(=O)C2CCCO2)s1 (centres undefined) > 76.9 µM
Clc1cccc2sc(N3CCCC3)nc12 > 76.9 µM
c1ccc(SCc2nc(-c3ccccn3)no2)cc1 > 76.9 µM
CC1CCN(C(=O)C(NS(=O)(=O)c2cccc3nsnc23)c2ccccc2)CC1 (centres undefined) > 76.9 µM
O=c1ccc2cc(S(=O)(=O)N3CCOCC3)ccc2o1 > 76.9 µM
Cc1cccc(-c2c3c(=O)n(C)c(=O)n(C)c3cn2CCO)c1 > 76.9 µM
O=C(CS(=O)(=O)c1ccccc1)N1CCCCCC1 > 76.9 µM
Cn1c(=O)c2c(nc(Br)n2CCc2ccccc2)n(C)c1=O > 76.9 µM
CN1CCN(CC#CCn2c3ccccc3c3ccccc32)CC1
CCOC(=O)C1CCN(C(=O)c2ccc(Br)o2)CC1 > 76.9 µM
Cc1cccc2cc(CN(CC3CCCO3)C(=O)c3cnccn3)c(=O)[nH]c12 (centres undefined) > 76.9 µM
C=CCn1c(SCC(=O)NC(=O)NCc2ccco2)nc2sc(C)c(C)c2c1=O > 76.9 µM
CC(C)NC(=O)CSc1nc2ccccc2n1CC(=O)N1CCc2ccccc21 > 76.9 µM
Cc1ccccc1CS(=O)(=O)Cc1ccc(C(=O)NCCCN2CCOCC2)o1 > 76.9 µM
Cc1occc1-c1nnc(SCC(=O)Nc2ccccc2)n1CCc1ccccc1
COc1ccc2ncn(-c3ccccc3)c2c1 > 76.9 µM
CCOC(=O)c1[nH]c(C)c(C(=O)NCC2CCCO2)c1C (centres undefined) > 76.9 µM
CCn1cc(C(=O)OCC(=O)NCc2ccc3c(c2)OCO3)c(=O)c2ccc(C)nc21 > 76.9 µM
Cc1ccc(-c2nnn(CC(=O)N(c3cccc(F)c3)C(C(=O)NC3CCCC3)c3ccco3)n2)o1 (centres undefined) > 76.9 µM
CC(C)(CNCC(O)c1ccccc1)N1CCOCC1 (centres undefined) > 76.9 µM
c1ccc(-c2nnc(-c3cccc(-c4nnc(-c5ccccc5)o4)c3)o2)cc1 > 76.9 µM
CCC(C)(C)n1nnnc1C(c1ccccc1F)N1CCC(C(N)=O)CC1 (centres undefined) > 76.9 µM
CC1CN(C(=O)c2ccc3c(c2)OCO3)OC(c2ccccc2)O1 (centres undefined) > 76.9 µM
COC(=O)c1ccc(CSc2nncn2C)cc1 > 76.9 µM

From PubChem BioAssay AID360 (National Center for Advancing Translational Sciences (NCATS), 2006)
